167 variants from the RNAGym collection of RNA variant scans (doi:10.7554/elife.90254) can be followed below.

Read counts are not given, so values of variants with three or more changes are uncertain.

The labels stand for the following.
B1: LINE1-mini (parent)
chain: GGCAGAGCUCAACACAGCGUGGCAAAGUGGCUGUGGCUAGACUGCC

Variants of B1 are the subject of this series. The experiment in a line: self-cleavage, relative activity (ratio to wild type); higher = more cleavage; in vitro, sequencing; the parent is a self-cleaving ribozyme.
Regarding A16U G19A A24G, the self-cleavage amounted to 0.01. As to C15U U34G A39U C46U, the self-cleavage was found to be 0.01. For the variant A16C G17A G19U G21A G22U G35U C45G, the self-cleavage was determined as 0.

Turning to C15U U34G C45G, the self-cleavage came to 0.04. Turning to A16G G22U G27C, the self-cleavage amounted to 0.39. Take C15U G19A G22C G44U: the self-cleavage was determined as 0.16. As for C15U G21U U34G U38G, the figure is 0.03.

Consider C15U G22A A39C, for which the self-cleavage worked out at 0.1. As for A16C A25U G29U G30C G33U, the figure is 0.04; as for G17A C18U G33U, 0.15. Next, A16C A25G G29U C31U G33C: 0.03. As for A16U G27A G40A, the figure is 0.05; as for A16U C31A U38G G44A, 0.01.

In the case of A16C G21U U32G A41C, the self-cleavage worked out at 0.03. Regarding A16C C23A C37A, the self-cleavage turned out to be 0.06. Regarding A16U G21U C31A C42A C46G, the self-cleavage worked out at 0.01. Next, A16U A25C A26C C45U: 0.06; A16G G22U U32A A39C: 0.01; A16G C18A A25G: 0.04. Next, A16G A24U G30C C46A: 0.19; C15U G19A G35C: 0.06. Next, C15U U32G G40A C46U: 0.04; G17A A25C A39U G40A C42U: 0.06; C15U G22C A25C: 0.05. Take A16G G40U C42G: the self-cleavage is 0.02. A16U G19A G36C: the self-cleavage was 0.16. As for A16C G29U C42G, the figure is 0.07; as for A16U G19C A25G C46G, 0.11. As for A16G G44U C45U, the figure is 0; as for A16G G33A G36U, 0.03; as for A16G U20A A25G C37A A39C, 0.

Regarding A16G U32A U34A, the self-cleavage worked out at 0.01. On to A16U G35U G40U, for which the self-cleavage amounted to 0.04. As for G17A A25G U38A, the self-cleavage turned out to be 0.02.

For C15U C23A A41G, the self-cleavage was 0.34.

As for A16U G21U A26U G30A G36C, the self-cleavage came to 0.01. As for A16U C18U A41C C46G, the figure is 0.01.

Turning to G17A A26C U43C, the self-cleavage was 0.07. For A16G G30A C42G, the self-cleavage was 0. Next, G17C A24U C42U: 0.06; G17A G27A G29C U34A: 0.15.

On to G17A U20G G30C C37A C45G, for which the self-cleavage turned out to be 0.01. Next, A16G G27A G33U: 0.14; C15U G35U C45U: 0.09; G17A C18A A26C: 0.35. As for A16U G17A C31U U32A A39G C42U, the self-cleavage came out at 0.16. In the case of G17A A24C U28C, the self-cleavage is 1.47.

On to A16U U20G G35C, for which the self-cleavage stood at 0.03. As for A16G U32C G35C, the figure is 0.05. Regarding G17A A26G U34A, the self-cleavage turned out to be 0.02. G17A G36A U38C G44A: the self-cleavage amounted to 0.01. As for G17A C37A G40C G44U, the figure is 0.02; as for A16U A26G U28G, 0.03. Regarding C15U U32G U34C U38A, the self-cleavage was found to be 0.03.

With G17A A25C G29C, the self-cleavage was 0.54. As to A16C G29U C31A, the self-cleavage worked out at 0.13.

Regarding A16G U28G C31A, the self-cleavage came to 0.02. Next, A16C G29U U32G C42A C45G: 0.03; A16C G21A G40C: 0.02; A16G A25U G30U: 0.21. Next, A16G U20A C23U C42A: 0.02; A16C C31G C45G: 0.03; C15U G17U U34C G36C: 0.06. Next, A16C G17U G33U G40C G44U: 0.06; G17A G21U G36C C42G: 0.01. Consider A16G G22U U32G U34C, for which the self-cleavage came to 0.01. In the case of C15U U28G G35U G40A A41G C46U, the self-cleavage is 0.01. Next, A16U G19U G27C C42U: 0.1; A16U A25C G35A: 0.01.

Turning to A16G C23U U28A, the self-cleavage worked out at 0.84.

For the variant C15U U20G A26G A41G, the self-cleavage worked out at 0.03. Next, A16G C23A A24G A26G C42A: 0; A16U C37U G44A: 0.01. As for C15U U20A A26G G33A, the figure is 1.3. As for G17A C23U G33A U43A, the figure is 0.02. For the variant G17A A26C C45U, the self-cleavage came to 0.05. Next, A16C A39G G44U: 0.06. As to G17A C23A U34A, the self-cleavage turned out to be 0.02.

On to A16U G17C C23A G29A, for which the self-cleavage worked out at 0.15. On to G17C A24C G36U G44A, for which the self-cleavage amounted to 0.02. Turning to G17A C45G C46U, the self-cleavage is 0.03. Next, C15U G19A C23G C46U: 0.83; A16U G19A A25G: 0.01; G17C A24U G35U A41G: 0.03. With A16G G22A G36U, the self-cleavage worked out at 0.38. Next, G17A G30A U34A: 0.03. Take A16C G17A U28G G40A A41U: the self-cleavage worked out at 0.04. Take A16U U28A C31G: the self-cleavage was 0.01. As for A16G C31U U34G, the figure is 0.01; as for A16U G17A A39U C46A, 0.01. Next, A16C G27A G29U C31U C37U A41G: 0.06; C15U G44U C45A: 0.07. Next, A16C U34C C37U: 0.75. Turning to G17A U28G C37U C42A, the self-cleavage turned out to be 0.04.

For G17A U32G G40U, the self-cleavage was determined as 0.04. Next, C15U G30A G44U: 0.05; A16U A24U C31A A39U: 0.03. Turning to C15U G33C A41C, the self-cleavage stood at 0.03. As for A16C G27U U38C, the figure is 0.2; as for A16G G19A A25G, 0.11. As to C15U G19U A41U C45G, the self-cleavage is 0.76. As for C15U G17U U32G C46G, the figure is 0.02; as for A16C C23G A24G, 0.09. As for C15U G19C G30U G33C, the figure is 0.11; as for A16U U28G G40U, 0.09. Next, C15U G35C C37G: 0.04; C15U G21U C37A A39C C46A: 0.05; A16U G21C C31G: 0.01.

Turning to C15U C23U G30C G33A G36A, the self-cleavage was found to be 0.07. Next, A16G A26G G27C G35C U43A: 0.01; G17A A24C G29C G33A: 0.03; A16G C23G A26G G30C A41G G44C: 0.01. As for G17A G21U G40U, the figure is 0.01; as for G17A C18G G36U, 0.01. As to C15U G29U G30A U34C A41U, the self-cleavage came to 0.03.

With A16C G19A U28G, the self-cleavage stood at 0.04. As to G17A A24U C31A, the self-cleavage stood at 0.02.

For the variant A16C C37U A41C C45G, the self-cleavage was determined as 0. In the case of A16U C37G G44C, the self-cleavage came to 0.04. Next, C15U C42U G44A: 0.12. As for A16G G19U C37U, the figure is 0; as for A16C C18U G19A A26G U32G, 0.5. As for A16G G22C G40U C46A, the figure is 0; as for C15U G17U A25G G44C, 0.06. Turning to A16C C23G A39U, the self-cleavage worked out at 0.02. Next, A16C G17U G21U G30U C37G: 0.01; G17A G22C C31G U43C: 0.

For the variant A16U U20A C23U G35C U38A, the self-cleavage is 0.04. In the case of A16G A39C C42A G44U, the self-cleavage came out at 0.07.

As for C15U C18U G19A G33C C37G, the self-cleavage stood at 0.02. For the variant A16G G22A G30U A39C, the self-cleavage came to 0.02. In the case of C15U G22C U34G C46U, the self-cleavage worked out at 0.03. As for A16C G40U C46A, the figure is 0.03. Next, G17A G19A A24G A26C: 0.34; G17A A26C C42U: 0.19.

As for A16C C18A U20A A25C U28A U32A U43A, the self-cleavage came out at 0. For the variant C15U G21A C46U, the self-cleavage worked out at 0.03. As for A16U C18U A41C, the self-cleavage was 0.07. Next, A16U G33A C46G: 0.11; A16C G22U A24C C31A G36U C45G: 0.03; G17A G35A G40C C46A: 0.11.

Regarding C15U G17C G27U A39G, the self-cleavage was found to be 0.05. As for A16C A26C G35U G36U A41U, the self-cleavage was 0.08. Take A16G U20A C23U A25G: the self-cleavage amounted to 0.05. Next, C15U G29C C42G C46G: 0.02. For A16C U20A G27A A41G, the self-cleavage was found to be 0.04. Next, A16G G35U G40A C42U: 0.09; G17A C23A G33A G36A: 0.07; A16C C18U U34C: 0.05. Next, A16G G33U G35A U38C C46G: 0; C15U G19C U38A: 0.41; A16U G33U C46A: 0.05. With A16U G17U A24U G29C G30U, the self-cleavage worked out at 0.13.

Consider A16U U20G C23U, for which the self-cleavage is 0.06. As to A16U G33U C37A, the self-cleavage was 0. Next, A16U C18A G19C: 0.07.

In the case of A16G G19A G35U, the self-cleavage was 0.03. For the variant C15U U20G G40C, the self-cleavage was 0.02. Next, G17A C42A G44C: 0.07; A16U A26U G35C: 0.22; G17A U32C C37G U43C: 0.2. C15U C23U G36U C46G: the self-cleavage came out at 2.84. Next, A16G G22A G30U: 0.2; G17A C23G G27U C37U: 0; A16G C18G C46U: 0.04. Next, A16G C18U U28A C31G G33C: 0.02; G17A G22U A41G: 0.07.
